Assay results reported in patent publication US8551981B2, “Furo[3,2-d]pyrimidine compounds” (AbbVie Inc., priority 2010, dated 2013).

Target: Syk catalytic domain (aa 356-635 with a C-terminal His-tag) (Homo sapiens, UniProt P43405)
Assay: In vitro Syk kinase activity by trFRET (Syk catalytic domain)
[1] = Syk IC50, Syk catalytic domain (aa 356-635), trFRET, 0.001 mM ATP
[2] = Syk catalytic domain (aa 356-635), trFRET, 0.001 mM ATP, read-out: Syk IC50

Structure (SMILES)	IC50 [1]	IC50 (Syk IC50, class symbols A-D)	other results
CC1(C)C(=O)Nc2cc(Nc3nc(NCC(F)F)c4occc4n3)ccc21 [Example #16, 6-(4-(2,2-Difluoroethylamino)furo[3,2-d]pyrimidin-2-ylamino)-3,3-dimethylindolin-2-one]	< 100 nM	–	–
c1cc2nc(Nc3ccc(N4CCNCC4)cc3)nc(NC3CC3)c2o1 [C.1.11]	–	100 to 1000 nM	–
CCCNc1nc(Nc2ccc(C(C)(C)C#N)cc2)nc2ccoc12 [B.5.116]	100 to 1000 nM	–	–
CCCNc1nc(Nc2ccc3c(c2)NC(=O)C3(C)C)nc2ccoc12 [B.5.81]	< 100 nM	–	–
C[C@H]1Cc2ccc(Nc3nc(NC4CC4)c4occc4n3)cc2NC1=O [(S)-7-(4-(cyclopropylamino)furo[3,2-d]pyrimidin-2-ylamino)-3-methyl-3,4-dihydroquinolin-2(1H)-one]	< 100 nM	–	–
Cc1n[nH]c2cc(Nc3nc(N4CCC4)c4occc4n3)ccc12 [C.1.47]	–	100 to 1000 nM	–
Cc1n[nH]c2cc(Nc3nc(N[C@@H]4CC[C@H](N)C4)c4occc4n3)ccc12 [C.1.27]	–	100 to 1000 nM	–
Cn1ncc2cc(Nc3nc(N4CCC5(CCCNC5)CC4)c4occc4n3)ccc21 [C.1.43]	–	< 100 nM	–
COCCCNS(=O)(=O)c1ccc(Nc2nc(N3CCC(CN)CC3)c3occc3n2)cc1 [C.1.17]	–	< 100 nM	–
CC1(C)C(=O)Nc2cc(Nc3nc(C#CC4CC4)c4occc4n3)ccc21 [B.5.71]	100 to 1000 nM	–	–
O=C1CCCc2cc(Nc3nc(NC4CC4)c4occc4n3)ccc2N1 [B.5.56]	< 100 nM	–	–
CCC1(CN)CCN(c2nc(Nc3ccc4c(c3)NC(=O)C(C)(C)O4)nc3ccoc23)CC1 [C.1.65]	–	< 100 nM	–
CC1(C)Cc2ccc(Nc3nc(NC4CCC4)c4occc4n3)cc2NC1=O [B.5.109]	< 100 nM	–	–
Cc1n[nH]c2cc(Nc3nc(N4CCC5(CCCNC5)CC4)c4occc4n3)ccc12 [Q.1.3]	–	< 100 nM	–
O=C1Cc2ccc(Nc3nc(NC4CC4)c4occc4n3)cc2N1 [B.5.28]	100 to 1000 nM	–	–
CS(=O)(=O)N1CCN(c2nc(Nc3ccc(S(N)(=O)=O)cc3)nc3ccoc23)CC1 [B.2.8]	1000 to 10000 nM	–	–
CC(C)CNc1nc(Nc2ccc3c(c2)NC(=O)CC3)nc2ccoc12 [B.5.111]	100 to 1000 nM	–	–
c1cc(-c2ccc(Nc3nc(NC4CC4)c4occc4n3)cc2)ccn1 [B.5.136]	100 to 1000 nM	–	–
Cc1n[nH]c2cc(Nc3nc(N4CCC(CN)CC4)c4occc4n3)ccc12 [Q.1, 4-(4-(Aminomethyl)piperidin-1-yl)-N-(3-methyl-1H-indazol-6-yl)furo[3,2-d]pyrimidin-2-amine]	< 100 nM	–	–
Cc1n[nH]c2cc(Nc3nc(N4CCC(C)(CN)CC4)c4occc4n3)ccc12 [C.1.31]	–	< 100 nM	–
Cn1c(=O)[nH]c2cc(Nc3nc(NC4CC4)c4occc4n3)ccc21 [B.5.26]	100 to 1000 nM	–	–
O=C1CCCc2ccc(Nc3nc(OC4CCC4)c4occc4n3)cc2N1 [B.5.104]	100 to 1000 nM	–	–
Cc1n[nH]c2cc(Nc3nc(N4CCCC(NCC(F)F)CC4)c4occc4n3)ccc12 (stereo not drawn) [C.1.73]	–	100 to 1000 nM	–
NCC1(F)CCN(c2nc(Nc3ccc4cn[nH]c4c3)nc3ccoc23)CC1 [J.1.13]	1000 to 10000 nM	–	–
CNc1nc(Nc2ccc3c(c2)NC(=O)C(C)(C)O3)nc2ccoc12 [B.5.58]	–	–	IC50 [2]: 100 to 1000 nM
CNCC1CCN(c2nc(Nc3ccc4c(c3)NC(=O)C4(C)C)nc3ccoc23)CC1 [C.1.51]	–	< 100 nM	–

Structure (SMILES)	IC50 [1]	IC50 (Syk IC50, class symbols A-D)	other results
CC1(C)C(=O)Nc2cc(Nc3nc(N4CCC(O)(CN)CC4)c4occc4n3)ccc21 [Example #AM.1.3]	–	< 100 nM	–
CC1(C)Oc2ccc(Nc3nc(N4CCC(CO)C4)c4occc4n3)cc2NC1=O (stereo not drawn) [B.5.101]	–	–	IC50 [2]: 100 to 1000 nM
CC(C)CNc1nc(Nc2ccc3c(c2)NC(=O)C3(C)C)nc2ccoc12 [B.5.80]	100 to 1000 nM	–	–
O=C1CCc2ccc(Nc3nc(NC4CC4)c4occc4n3)cc2N1 [Example #7, 7-(4-(Cyclopropylamino)furo[3,2-d]pyrimidin-2-ylamino)-3,4-dihydroquinolin-2(1H)-one]	< 100 nM	–	–
FCCNCC1CCN(c2nc(Nc3ccc4cn[nH]c4c3)nc3ccoc23)CC1 [C.1.15]	–	< 100 nM	–
CC(C)Oc1ccc(Nc2nc(NC3CC3)c3occc3n2)cc1F [B.5.48]	100 to 1000 nM	–	–
CC1(C)Oc2ccc(Nc3nc(N4CCC(CN)(CO)CC4)c4occc4n3)cc2NC1=O [C.1.69]	–	< 100 nM	–
Cc1n[nH]c2cc(Nc3nc(N[C@@H]4[C@H](C(N)=O)[C@H]5C=C[C@@H]4C5)c4occc4n3)ccc12 [C.1.52]	–	< 100 nM	–
CC1(C)Oc2ccc(Nc3nc(N4CCC(CN)(CN)CC4)c4occc4n3)cc2NC1=O [C.1.67]	–	< 100 nM	–
CC1(C)C(=O)Nc2cc(Nc3nc(N4CCC5(CCNC5)CC4)c4occc4n3)ccc21 [C.1.38]	–	< 100 nM	–
CC1(C)Oc2ccc(Nc3nc(N4CCC(CN)CC4)c4occc4n3)cc2NC1=O [C.1.6]	–	< 100 nM	–
O=C(NCCO)c1n[nH]c2cc(Nc3nc(NC4CC4)c4occc4n3)ccc12 [J.1.15]	100 to 1000 nM	–	–
CC(C)Nc1nc(Nc2ccc3c(c2)NC(=O)C(C)(C)O3)nc2ccoc12 [B.5.59]	–	–	IC50 [2]: 100 to 1000 nM
CN(C)C(=O)c1n[nH]c2cc(Nc3nc(NC4CC4)c4occc4n3)ccc12 [J.1, 6-(4-(Cyclopropylamino)furo[3,2-d]pyrimidin-2-ylamino)-N,N-dimethyl-1H-indazole-3-carboxamide]	< 100 nM	–	–
NC(=O)C1CCN(c2nc(Nc3ccc(S(N)(=O)=O)cc3)nc3ccoc23)CC1 [B.2.2]	1000 to 10000 nM	–	–
CC1(C)C(=O)Nc2cc(Nc3nc(N4CCC(CNCC(F)F)C4)c4occc4n3)ccc21 (stereo not drawn) [B.5.99 A]	100 to 1000 nM	–	–
CCCC(=O)Nc1ccc(Nc2nc(Nc3ccc4cn[nH]c4c3)c3occc3n2)cc1 [J.1.1]	100 to 1000 nM	–	–
NC(=O)[C@H]1[C@@H](Nc2nc(Nc3ccc4cn[nH]c4c3)nc3ccoc23)[C@@H]2C=C[C@H]1C2 [C.1.50]	–	< 100 nM	–
CC1(C)Oc2ccc(Nc3nc(Nc4ccc5c(c4)NC(=O)C(C)(C)O5)c4occc4n3)cc2NC1=O [B.5.62]	–	–	IC50 [2]: 100 to 1000 nM
CC1(CN)CCN(c2nc(Nc3ccc4c(c3)NC(=O)C(C)(C)O4)nc3ccoc23)CC1 [C.1.33]	–	< 100 nM	–
CCCNc1nc(Nc2ccc3c(c2)NC(=O)CC3)nc2ccoc12 [B.5.113]	100 to 1000 nM	–	–
O=c1[nH]c2ccc(Nc3nc(NC4CC4)c4occc4n3)cc2[nH]1 [B.5.20]	100 to 1000 nM	–	–
CC(=O)N(C)c1ccc(Nc2nc(N3CCc4ccccc4C3)c3occc3n2)cc1 [B.5.70]	100 to 1000 nM	–	–
FC(F)(F)CNc1nc(Nc2ccc(N3CCOCC3)c(Cl)c2)nc2ccoc12 [B.5.13]	< 100 nM	–	–
O=C1Nc2cc(Nc3nc(N4CCC(CNCC(F)F)CC4)c4occc4n3)ccc2OC1(F)F [B.5.88]	100 to 1000 nM	–	–
FC(F)(F)CNc1nc(Nc2ccc3cn[nH]c3c2)nc2ccoc12 [Example #13, N^2-(1H-Indazol-6-yl)-N^4-(2,2,2-trifluoroethyl)furo[3,2-d]pyrimidine-2,4-diamine]	< 100 nM	–	–

Structure (SMILES)	IC50 [1]	IC50 (Syk IC50, class symbols A-D)	other results
NC1CCN(c2nc(Nc3ccc(S(N)(=O)=O)cc3)nc3ccoc23)C1 (stereo not drawn) [C.1.1]	–	> 10000 nM	–
O=c1[nH]c2ccc(Nc3nc(NC4CC4)c4occc4n3)cc2o1 [B.5.19]	100 to 1000 nM	–	–
c1ccc2c(c1)CCN(c1nc(Nc3ccc4cn[nH]c4c3)nc3ccoc13)C2 [C.1.55]	–	100 to 1000 nM	–
CC1(CN)CCN(c2nc(Nc3ccc4c(c3)NC(=O)C4(C)C)nc3ccoc23)CC1 [C.1.32]	–	< 100 nM	–
O=S1(=O)NCc2ccc(Nc3nc(NC4CC4)c4occc4n3)cc21 [B.1.7]	1000 to 10000 nM	–	–
Cc1n[nH]c2cc(Nc3nc(N4CCC(CNC5CCS(=O)(=O)CC5)CC4)c4occc4n3)ccc12 [J.1.9]	100 to 1000 nM	–	–
C[C@@H]1Cc2ccc(Nc3nc(NC4CC4)c4occc4n3)cc2NC1=O [(R)-7-(4-(cyclopropylamino)furo[3,2-d]pyrimidin-2-ylamino)-3-methyl-3,4-dihydroquinolin-2(1H)-one]	< 100 nM	–	–
O=c1ccc2ccc(Nc3nc(NC4CC4)c4occc4n3)cc2[nH]1 [B.5.36]	< 100 nM	–	–
c1cnn(-c2ccc(Nc3nc(NC4CC4)c4occc4n3)cc2)n1 [B.5.55]	100 to 1000 nM	–	–
N#Cc1n[nH]c2cc(Nc3nc(NC4CC4)c4occc4n3)ccc12 [J.1.8]	< 100 nM	–	–
CC1(C)C(=O)Nc2cc(Nc3nc(N[C@@H]4[C@H](C(N)=O)[C@H]5C=C[C@@H]4C5)c4occc4n3)ccc21 [B.5.61]	< 100 nM	–	–
Cc1cc(Nc2nc(N3CCC4(CCCNC4)CC3)c3occc3n2)ccc1N1CCOCC1 [C.1.42]	–	< 100 nM	–
CC1(CNCC(F)F)CCN(c2nc(Nc3ccc4c(c3)NC(=O)C(C)(C)O4)nc3ccoc23)CC1 [B.5.93]	–	–	IC50 [2]: 100 to 1000 nM
O=C1CCc2ccc(Nc3nc(N4CCC(CNCC(F)F)CC4)c4occc4n3)cc2N1 [B.5.79]	< 100 nM	–	–
CC1(C)Oc2ccc(Nc3nc(NC4(CO)CC4)c4occc4n3)cc2NC1=O [B.5.38]	–	–	IC50 [2]: 100 to 1000 nM
Cc1ccc2cc(Nc3nc(NC4CC4)c4occc4n3)ccc2n1 [B.5.45]	100 to 1000 nM	–	–
CC1(C)C(=O)Nc2cc(Nc3nc(NC4CC4)c4occc4n3)ccc21 [Example #11, 6-(4-(Cyclopropylamino)furo[3,2-d]pyrimidin-2-ylamino)-3,3-dimethylindolin-2-one]	< 100 nM	–	–
NCC1CCN(c2nc(Nc3ccc(N4CCOCC4)c(Cl)c3)nc3ccoc23)CC1 [C.1.13]	–	< 100 nM	–
CC1(C)Oc2ccc(Nc3nc(NCC4CC4)c4occc4n3)cc2NC1=O [B.5.33]	–	–	IC50 [2]: 100 to 1000 nM
Cc1nc2ccc(Nc3nc(NC4CC4)c4occc4n3)cc2s1 [B.5.44]	100 to 1000 nM	–	–
N#CCc1ccc(Nc2nc(NC3CC3)c3occc3n2)cc1 [B.5.134]	100 to 1000 nM	–	–
NCCCNc1nc(Nc2ccc3cn[nH]c3c2)nc2ccoc12 [Q.1.1]	–	100 to 1000 nM	–
CCCNc1nc(Nc2ccc3c(C)n[nH]c3c2)nc2ccoc12 [B.5.112]	100 to 1000 nM	–	–
CC1(CN)CCN(c2nc(Nc3ccc4cn[nH]c4c3)nc3ccoc23)CC1 [Example #12, 4-(4-(Aminomethyl)-4-methylpiperidin-1-yl)-N-(1H-indazol-6-yl)furo[3,2-d]pyrimidin-2-amine]	< 100 nM	–	–
O=C1COc2ccc(Nc3nc(NC4CC4)c4occc4n3)cc2N1 [B.5.7]	100 to 1000 nM	–	–
C=CCNc1nc(Nc2ccc(S(C)(=O)=O)cc2)nc2ccoc12 [Example #1, N^4-Allyl-N^2-(4-(methylsulfonyl)phenyl)furo[3,2-d]pyrimidine-2,4-diamine]	100 to 1000 nM	–	–

Like-named read-outs stand apart in the source and are kept apart here.
